The campaign covered roughly 330,000 compounds. About 4,200 (1.3%) were called active. Inconclusive results, whose numbers are uncertain, are shown with a selection of clear calls. Calls come from the whole dose curve; as a rule, active = well fitted activation curve with a large enough effect; inconclusive = small, poorly fitted or top-dose-only effect; inactive = no such curve, though single readings can be large or run the other way. Where the call is inconclusive, the potency comes from a doubtful curve fit.
assay: qHTS screen for small molecules that induce genotoxicity in human embryonic kidney (HEK293T) cells expressing luciferase-tagged ELG1; details: HEK293T ELG1-luciferase reporter, luminescence, 16 h; series mostly up to 46 µM; note: nearly all actives have a fitted effect of over 60% in size
In short: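 Luminescence read-out: rising ELG1-luciferase signal, reflecting elevated ELG1 protein under genetic stress, flags genotoxic compounds. Cells were treated for 16 hr at 37 °C before ONE-Glo detection.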
Potency is the fitted concentration of half-maximal effect; tags give direction and shape of the fitted curve.

Structure (SMILES)	Potency
CC(=C/c1ccc(C(C)C)cc1)/C=N/NC(=O)CSc1ccccn1	inconclusive: 9.2 µM [activator, partial curve]
O=C(COc1ccc(Br)cc1Cl)NC1CCCCC1	inconclusive: 16.4 µM [activator, partial curve]
COc1ccc(/C=N/NC(=O)c2cc3cc(OC)c(OC)cc3[nH]2)cc1	inactive
CCOc1ccc(C(=O)Nc2ccc(NC(=O)c3ccco3)c(Cl)c2)cc1Cl	inconclusive: 14.1 µM [activator, partial curve, poor fit]
CN=c1scc(-c2ccccc2F)n1/N=C(\C)c1cccnc1	inconclusive: 2.59 µM [activator, full curve]
CCCC(C)c1nnc(NC(=O)COc2ccc3c(c2)OCO3)s1 (configuration not stated)	inactive
Clc1ccc(-c2ccccc2)cn1	inactive
COc1ccc(C(=O)N2CCNC(=O)C2CC(=O)Nc2cc(Cl)ccc2OC)cc1 (configuration not stated)	inactive
Cc1ccc(C(=O)NCCc2cccs2)cc1	inconclusive: 0.461 µM [activator, partial curve]
O=C(NCc1ccco1)c1ccc(Oc2ccccc2)cc1	inconclusive: 18.4 µM [activator, single point]
COc1ccc(C(CC(=O)c2ccccc2)S(=O)(=O)c2ccc(C)cc2)cc1 (configuration not stated)	inconclusive: 9.2 µM [activator, partial curve, poor fit]
Cc1ccc(Nc2cc(-n3cccn3)ncn2)c(C)c1	active: 7.31 µM
O=C(N/N=C\c1ccc2c(c1)OCO2)c1ccco1	active: 14.6 µM
O=C(c1ccc(F)cc1)c1ccc(-c2ccc(F)cc2)nc1	inactive
O=C(NCc1ccc2c(c1)OCO2)C1CCN(c2ccc(S(=O)(=O)N3CCCC3)cc2)CC1	inconclusive: 20.6 µM [activator, partial curve, poor fit]
O=C(Nc1nccs1)c1ccc(NC(=O)c2ccco2)cc1	inconclusive: 16.4 µM [activator, partial curve]
Cc1ccc(CNc2ccc3c(c2)ncn3C(C)(C)C)cc1	inconclusive: 5.8 µM [activator, single point]
O=C(CCN1C(=O)c2ccccc2C1=O)N(CCO)Cc1ccccc1	inactive
Cn1c(=NC(=O)c2ccccc2[N+](=O)[O-])sc2cccc(F)c21	inconclusive: 2.31 µM [activator, full curve]
CCc1ccc(NC(=O)C(=O)c2ccccc2NC(C)=O)cc1	inconclusive: 11.6 µM [activator, partial curve, poor fit]
COc1ccc(Cl)cc1NC(=O)CN(C)C(=O)/C=C/c1ccco1	inactive
O=C(Nc1ccc(N2CCOCC2)cc1)c1cnsn1	active: 0.164 µM
Cc1ccc(NC(=O)C(=O)NCc2ccccn2)cc1	inconclusive: 18.3 µM [activator, single point]
CCC(C)Nc1nc(-c2ccc3c(c2)NC(=O)CO3)cs1 (configuration not stated)	inactive

Structure (SMILES)	Potency
OC1CCN(Cc2ccc(OCc3ccccc3)cc2)CC1	inconclusive: 7.3 µM [activator, partial curve]
C/C(N)=C(/C#N)C(=O)CSc1nc2ccc(C)cc2[nH]1	inconclusive: 5.17 µM [activator, partial curve]
CCc1ccc(OCC(=O)NCc2ccco2)c(Br)c1	inconclusive: 20.6 µM [activator, partial curve, poor fit]
COc1ccc(CNC(=O)COC(=O)/C=C/c2cccc(Br)c2)cc1OC	inactive
CCCCCCn1cnc2c(c1=O)c1nc3ccccc3nc1n2/N=C/c1ccco1	inactive
Cc1ccc(NC(=O)N2CCCc3ccccc32)cc1C	inconclusive: 18.3 µM [activator, partial curve, poor fit]
CCn1c(SCC(=O)c2cccs2)nnc1-c1cccs1	inconclusive: 25.9 µM [activator, partial curve, poor fit]
CCOc1ccc2nc(N3CCCCCC3)sc2c1	inconclusive: 2.59 µM [activator, partial curve]
O=C(NC12CC3CC(CC(C3)C1)C2)c1ccc(-c2ccccc2Cl)o1	inconclusive: 2.31 µM [activator, full curve]
N#Cc1c(NC(=O)c2cc([N+](=O)[O-])ccc2N2CCOCC2)sc2c1CCCC2	inconclusive: 29.1 µM [activator, partial curve, poor fit]
Cc1nn(Cc2ccccc2Cl)c(Cl)c1C(=O)NCCc1ccccc1	inconclusive: 8.2 µM [activator, partial curve]
Cc1cc([N+](=O)[O-])nn1Cn1nc([N+](=O)[O-])cc1C	inactive
COC(=O)[C@@]12CCCCN1[C@H](c1ccc(-c3ccc4c(c3)OCO4)c(OC)c1)[C@@H]1C(=O)N(C)C(=O)[C@@H]12	inactive
Nc1ccc(C(=O)N/N=C/c2ccccc2)cc1	inconclusive: 23.1 µM [activator, partial curve, poor fit]
COc1cccc(N2CCN(c3ncccn3)CC2)c1	inconclusive: 11.6 µM [activator, partial curve, poor fit]
CCN1C(=C2C(=O)c3ccccc3C2=O)C=Cc2ccccc21	inconclusive: 29.1 µM [activator, partial curve, poor fit]
Cc1ccc(-n2c(SCC(=O)N3CCC(C(=O)O)CC3)nc3ccccc3c2=O)cc1C	active: 14.6 µM
COc1cc(NC(=O)COC(=O)CCOc2ccc(C)cc2)cc(OC)c1	inactive
O=C(NC1CCCC1)c1cc2ccccc2o1	inconclusive: 29.1 µM [activator, single point]
Cc1ccc(NC(=O)N2CCCN(C(=O)OC(C)(C)C)CC2)cc1Cl	inactive
CCN(CC)C(=O)Oc1ccc2c(=O)c(-c3ccccc3)coc2c1	inconclusive: 2.59 µM [activator, partial curve, poor fit]
COc1ccc(C(=O)Nc2ccc(Cl)c(Cl)c2)c(OC)n1	inconclusive: 5.01 µM [activator, partial curve, poor fit]
CC(=O)Nc1c(O)nc(SCC(=O)Nc2ccc(C(C)=O)cc2)[nH]c1=O	active: 9.2 µM
